Experimental data reported in paper PMC3972206.
These are yes or no findings as the source states them, for the method shown. Some binding calls cover weakened binding; strength is not graded here. For some of these results: Tags and fused reporters may be left off the sequences shown. One block for each substance: values may come before it.

Protein sequences, listed by entry. Tags and fused reporters are not part of them. Lines headed by an entry give the natural chain unless they say otherwise; changes in a name come on top.
UniProt P12004: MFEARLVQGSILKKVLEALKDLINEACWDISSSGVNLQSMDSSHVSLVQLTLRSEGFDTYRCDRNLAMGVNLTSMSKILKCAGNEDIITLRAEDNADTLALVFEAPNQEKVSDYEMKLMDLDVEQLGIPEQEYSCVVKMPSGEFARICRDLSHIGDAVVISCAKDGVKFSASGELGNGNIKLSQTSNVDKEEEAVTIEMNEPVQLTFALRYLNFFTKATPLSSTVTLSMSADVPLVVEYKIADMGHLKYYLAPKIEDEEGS
UniProt P49005: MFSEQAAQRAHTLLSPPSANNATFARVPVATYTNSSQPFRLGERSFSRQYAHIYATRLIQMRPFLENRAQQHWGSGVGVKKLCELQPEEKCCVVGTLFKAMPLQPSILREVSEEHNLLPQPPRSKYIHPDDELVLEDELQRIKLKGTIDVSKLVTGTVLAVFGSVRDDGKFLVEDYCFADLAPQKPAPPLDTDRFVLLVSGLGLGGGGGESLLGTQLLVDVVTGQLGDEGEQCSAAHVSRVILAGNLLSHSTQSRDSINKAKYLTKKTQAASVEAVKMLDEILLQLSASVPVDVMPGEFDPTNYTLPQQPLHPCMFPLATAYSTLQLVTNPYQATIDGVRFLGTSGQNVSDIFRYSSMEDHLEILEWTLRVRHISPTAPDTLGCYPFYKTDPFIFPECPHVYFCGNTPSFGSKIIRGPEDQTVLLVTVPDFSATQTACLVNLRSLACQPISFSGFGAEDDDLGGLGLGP
UniProt P28340: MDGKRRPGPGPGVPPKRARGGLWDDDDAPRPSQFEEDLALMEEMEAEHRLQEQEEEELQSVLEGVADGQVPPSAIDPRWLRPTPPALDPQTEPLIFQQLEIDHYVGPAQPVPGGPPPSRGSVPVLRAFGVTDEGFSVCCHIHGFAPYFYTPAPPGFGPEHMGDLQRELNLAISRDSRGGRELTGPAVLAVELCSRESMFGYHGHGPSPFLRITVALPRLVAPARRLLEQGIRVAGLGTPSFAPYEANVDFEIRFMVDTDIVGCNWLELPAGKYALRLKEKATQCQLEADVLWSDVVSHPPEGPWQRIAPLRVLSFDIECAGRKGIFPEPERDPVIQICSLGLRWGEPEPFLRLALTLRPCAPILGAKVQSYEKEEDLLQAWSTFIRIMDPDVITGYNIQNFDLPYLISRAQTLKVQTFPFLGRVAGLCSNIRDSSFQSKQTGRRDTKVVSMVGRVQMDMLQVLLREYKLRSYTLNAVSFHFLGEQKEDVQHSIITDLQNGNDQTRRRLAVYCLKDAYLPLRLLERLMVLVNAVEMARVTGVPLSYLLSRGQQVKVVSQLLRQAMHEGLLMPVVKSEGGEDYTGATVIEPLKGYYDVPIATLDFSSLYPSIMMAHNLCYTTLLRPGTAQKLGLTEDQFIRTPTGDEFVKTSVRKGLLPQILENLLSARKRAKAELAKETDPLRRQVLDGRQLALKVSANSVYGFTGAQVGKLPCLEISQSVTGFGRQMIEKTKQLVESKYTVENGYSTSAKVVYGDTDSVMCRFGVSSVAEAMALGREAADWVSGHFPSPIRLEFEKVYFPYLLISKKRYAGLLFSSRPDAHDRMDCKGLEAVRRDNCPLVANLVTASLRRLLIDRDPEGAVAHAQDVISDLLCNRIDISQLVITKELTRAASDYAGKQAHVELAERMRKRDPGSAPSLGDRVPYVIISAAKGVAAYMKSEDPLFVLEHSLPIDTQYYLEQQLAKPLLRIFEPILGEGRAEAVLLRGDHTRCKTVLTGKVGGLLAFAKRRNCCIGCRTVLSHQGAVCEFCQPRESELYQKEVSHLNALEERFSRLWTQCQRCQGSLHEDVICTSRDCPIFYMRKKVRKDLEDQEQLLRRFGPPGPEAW
UniProt P07384: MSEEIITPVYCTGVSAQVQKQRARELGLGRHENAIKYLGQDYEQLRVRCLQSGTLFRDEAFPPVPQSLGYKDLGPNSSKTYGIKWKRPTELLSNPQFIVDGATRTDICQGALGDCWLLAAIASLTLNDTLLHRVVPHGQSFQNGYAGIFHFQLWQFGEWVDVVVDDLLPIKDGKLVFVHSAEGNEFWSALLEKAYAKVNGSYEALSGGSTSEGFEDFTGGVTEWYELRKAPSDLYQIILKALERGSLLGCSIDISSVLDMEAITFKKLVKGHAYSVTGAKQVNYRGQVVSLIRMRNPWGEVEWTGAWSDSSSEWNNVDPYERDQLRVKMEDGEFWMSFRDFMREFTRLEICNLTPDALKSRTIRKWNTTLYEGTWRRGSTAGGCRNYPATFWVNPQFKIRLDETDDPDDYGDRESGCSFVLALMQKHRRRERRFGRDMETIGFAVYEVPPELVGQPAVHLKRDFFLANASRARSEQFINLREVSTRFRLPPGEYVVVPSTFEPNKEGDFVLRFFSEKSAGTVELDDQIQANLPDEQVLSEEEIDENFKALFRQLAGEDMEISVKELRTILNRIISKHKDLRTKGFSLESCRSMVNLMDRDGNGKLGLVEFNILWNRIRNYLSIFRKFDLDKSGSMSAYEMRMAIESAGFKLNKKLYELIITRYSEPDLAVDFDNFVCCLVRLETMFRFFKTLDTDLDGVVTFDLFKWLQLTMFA
UniProt P04632: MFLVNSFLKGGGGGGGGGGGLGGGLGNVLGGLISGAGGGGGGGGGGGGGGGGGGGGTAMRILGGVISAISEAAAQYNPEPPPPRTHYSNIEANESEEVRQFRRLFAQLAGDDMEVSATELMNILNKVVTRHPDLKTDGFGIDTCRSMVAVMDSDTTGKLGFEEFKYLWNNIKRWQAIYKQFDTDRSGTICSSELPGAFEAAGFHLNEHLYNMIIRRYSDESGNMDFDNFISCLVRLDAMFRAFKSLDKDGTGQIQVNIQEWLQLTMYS

Key:
[1] = biological target: Recombinant human PCNA (human) (UniProt P12004); test: co-IP; 0.5 μg PCNA and 0.5 μg μ-calpain; precipitated with PC-10 anti-PCNA mouse monoclonal antibody and protein A/G agarose; blot with anti-μ-calpain; normal mouse IgG as control; both purified
[2] = biological target: T1, GST tagged full-length p12 subunit of human DNA polymerase delta (human) (UniProt Q9HCU8); test: pull-down; GST pull-down; GST-tagged p68, p50 or p12 (or GST) as bait on glutathione-Sepharose 4B beads, μ-calpain as prey; blot with anti-μ-calpain; both purified
T1 sequence: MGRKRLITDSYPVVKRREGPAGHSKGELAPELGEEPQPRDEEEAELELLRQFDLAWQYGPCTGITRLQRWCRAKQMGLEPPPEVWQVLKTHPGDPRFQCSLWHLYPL

[3] = biological target: T2, GST tagged full-length p68 subunit of human DNA polymerase delta (human) (UniProt Q15054); test: as above
T2 sequence: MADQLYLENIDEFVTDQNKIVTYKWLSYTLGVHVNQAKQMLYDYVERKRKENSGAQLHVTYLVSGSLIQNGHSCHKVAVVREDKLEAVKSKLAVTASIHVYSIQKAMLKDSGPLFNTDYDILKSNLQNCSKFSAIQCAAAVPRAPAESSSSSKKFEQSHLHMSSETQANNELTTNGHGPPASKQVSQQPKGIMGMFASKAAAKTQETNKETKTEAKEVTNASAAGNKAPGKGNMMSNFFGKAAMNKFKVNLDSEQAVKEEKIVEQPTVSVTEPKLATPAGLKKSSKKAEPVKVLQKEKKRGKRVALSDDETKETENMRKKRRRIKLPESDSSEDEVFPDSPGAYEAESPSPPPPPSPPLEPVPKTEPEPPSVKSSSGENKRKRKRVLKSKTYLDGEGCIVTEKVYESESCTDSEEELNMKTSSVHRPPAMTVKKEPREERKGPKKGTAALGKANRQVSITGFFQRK

[4] = biological target: GST tagged full-length p50 subunit of human DNA polymerase delta (human) (UniProt P49005); test: as above
[5] = biological target: His-tagged p125, catalytic subunit of human DNA polymerase delta (human) (UniProt P28340); test: pull-down; Ni-NTA pull-down; 0.5 μg His-tagged p125 as bait with 0.5 μg μ-calpain in 500 μl binding buffer (50 mM NaH2PO4, 300 mM NaCl, 20 mM imidazole, 10% glycerol, pH 8.0); nickel beads pre-treated with 2% BSA; blot with anti-μ-calpain; both purified
[6] = biological target: T3, Active human μ-calpain (calpain I) (human) (UniProt P07384+P04632); test: co-IP; 0.5 μg PCNA and 0.5 μg μ-calpain; precipitated with anti-μ-calpain antibody; blot with PC-10 anti-PCNA; normal rabbit IgG as control; both purified
[7] = biological target: T3, Active human μ-calpain (calpain I) (human); test: co-IP; 0.5 μg His-tagged p125 with 0.5 μg μ-calpain in 1×PBS, 1% NP-40, protease inhibitor cocktail; precipitated with anti-μ-calpain antibody and protein A/G agarose pre-treated with 2% BSA; blot with anti-p125; normal rabbit IgG as control; both purified

- binding [1]: binds
- binding [2]: no binding
- binding [3]: binds
- binding [4]: binds
- binding [5]: binds
Substance: Active human μ-calpain (calpain I) (from UniProt P07384 1-714; P04632 1-268) (enzyme)

- binding [6]: binds
Substance: Recombinant human PCNA (from UniProt P12004 1-261)

- binding [7]: binds
Substance: His-tagged p125, catalytic subunit of human DNA polymerase delta (from UniProt P28340 1-1107)
